Common to all, as to test: antibody binding signal (normalised fluorescence) (arbitrary fluorescence units); higher = stronger serum antibody binding to peptide
In experiment [1] the test system is pooled sera of chronic Chagas disease patients, Bolivia. As for the experimental part: (§1)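 Microarray of 15-residue peptides over residues 30-55 of Trypanosoma cruzi TSSAII, each with 1 to 10 substitutions at naturally variable positions, probed with one serum pool per country.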
Experiment [2] deals with pooled sera of chronic Chagas disease patients, Brazil. The protocol: as §1
The test system of experiment [3] is pooled sera of chronic Chagas disease patients, Colombia. The protocol:
as §1

The subject of experiment [4] is pooled sera of chronic Chagas disease patients, Mexico. The protocol: as §1
In experiment [5] the test system is pooled sera of chronic Chagas disease patients, USA. As for the experimental part:
as §1

The test system of experiment [6] is pooled sera of uninfected people, Argentina. The protocol:
as §1

Experiment [7] relates to pooled sera of uninfected people, Bolivia. The protocol:
as §1

In experiment [8] the test system is pooled sera of uninfected people, Brazil. The protocol: as §1
In experiment [9] the test system is pooled sera of uninfected people, Colombia. As for the experimental part: as §1
For experiment [10], the system named is pooled sera of uninfected people, Mexico. As for the experimental part:
as §1

Experiment [11] deals with pooled sera of uninfected people, USA. The protocol:
as §1

This is one part of the list. Antibody binding of pooled human sera (four to six donors per pool; dilution not stated) to peptides of the Trypanosoma cruzi antigen TSSA on microarrays. Quantile-normalised fluorescence in arbitrary units, mean of duplicate arrays; higher = more binding. No active / inactive call. The uninfected pools are read here as the healthy donors of the same country. The strongest signals lie near the top of the scale (about 60,000).

In the case of SGTDNKPATGETPSP, the antibody binding signal in experiment [1] stood at 34500; in experiment [2], 47000; in [3], 1300; in experiment [4] it was 269; in experiment [5] it was 22500; in experiment [6] it was 251. The antibody binding signal in [7] was found to be 738; in [8] it was 328; in experiment [9] it was 260; in experiment [10] it was 1930; in [11] it was 957.
On to PPSGTDKKTATGGAP, for which the antibody binding signal in experiment [1] was 3070; in experiment [2] it was 17300; in [3], 2950; in experiment [4] it was 29200; in experiment [5], 1760; in [6], 673. Besides, the antibody binding signal in [7] came to 401; in [8], 197; in experiment [9] it was 512; in experiment [10], 947; in experiment [11], 453.
For EKKTAAGGTPSQSGA, the antibody binding signal in experiment [1] was determined as 963; in experiment [2], 236; in experiment [3], 11000; in [4], 489; in experiment [5] it was 1840; in experiment [6], 276. For the same sequence, the antibody binding signal stood at 942 in experiment [7]; 1630 in experiment [8]; 155 in experiment [9]; 502 in [10]; 768 in [11].
As to PPSGKDNKTAAGGTP, the antibody binding signal in experiment [1] was 528; in experiment [2] it was 1830; in experiment [3], 4080; in [4], 8830; in [5] it was 4290; in experiment [6], 402. Further, the antibody binding signal is 567 in experiment [7]; 416 in experiment [8]; 259 in experiment [9]; 529 in experiment [10]; 226 in [11].
Consider DNKTAAGGTPSPPGA, for which the antibody binding signal worked out at 384 in [1]; 364 in [2]; 4170 in [3]; 315 in experiment [4]; 1350 in experiment [5]; 197 in experiment [6]. Further, the antibody binding signal in experiment [7] amounted to 341; in [8] it was 1340; in experiment [9], 345; in experiment [10], 1460; in [11] it was 164.
For PPSGKENKPATGETP, the antibody binding signal in experiment [1] stood at 33500; in [2] it was 28500; in experiment [3], 1010; in experiment [4] it was 2770; in experiment [5] it was 29000; in experiment [6], 3330. Further, the antibody binding signal in experiment [7] came out at 2580; in [8], 362; in experiment [9], 894; in experiment [10], 1930; in [11], 569.
Take TEKKTAAGEAPSQSG: the antibody binding signal in experiment [1] was determined as 11400; in experiment [2], 4440; in experiment [3] it was 591; in [4], 571; in experiment [5], 7480; in experiment [6] it was 151. For the same sequence, the antibody binding signal is 331 in experiment [7]; 239 in [8]; 1040 in [9]; 443 in experiment [10]; 205 in [11].
As for DKKAATGEAPSPPGA, the antibody binding signal in experiment [1] stood at 17000; in [2], 30400; in experiment [3] it was 287; in [4] it was 561; in [5], 24000; in [6], 681. Moreover, the antibody binding signal was determined as 104 in experiment [7]; 161 in [8]; 680 in experiment [9]; 137 in [10]; 219 in experiment [11].
KDNKPAAGGAPSPPG: the antibody binding signal in [1] was found to be 183; in experiment [2], 1520; in [3], 1000; in experiment [4], 133; in experiment [5] it was 725; in experiment [6] it was 274. The antibody binding signal in [7] stood at 235; in [8], 161; in experiment [9] it was 165; in [10] it was 146; in experiment [11] it was 137.
For SSTPPSGTENKAATG, the antibody binding signal in experiment [1] came out at 49900; in experiment [2], 54700; in [3] it was 438; in experiment [4], 4010; in experiment [5], 34100; in experiment [6] it was 4230. Besides, the antibody binding signal in experiment [7] was determined as 671; in [8], 481; in [9] it was 764; in experiment [10], 409; in experiment [11] it was 717.
Consider SGTEKKTAAGEAPSQ, for which the antibody binding signal is 11700 in [1]; 5960 in experiment [2]; 622 in experiment [3]; 663 in [4]; 8800 in experiment [5]; 191 in [6]. Further, the antibody binding signal was determined as 579 in [7]; 426 in experiment [8]; 1160 in experiment [9]; 192 in experiment [10]; 105 in experiment [11].
For KKTATGEAPSQPGAS, the antibody binding signal in [1] worked out at 8660; in experiment [2], 32000; in [3], 231; in experiment [4], 200; in experiment [5], 14000; in [6], 329. Moreover, the antibody binding signal in experiment [7] worked out at 193; in experiment [8] it was 104; in experiment [9] it was 131; in experiment [10], 112; in [11] it was 362.
As to ISTPPSGKEKKAAAG, the antibody binding signal in [1] worked out at 186; in experiment [2], 305; in experiment [3] it was 724; in [4], 8780; in [5], 638; in experiment [6], 403. Besides, the antibody binding signal in [7] turned out to be 299; in experiment [8] it was 123; in [9], 223; in experiment [10], 91; in experiment [11], 229.

Values taken from the supplement of paper PMC10441789.
